Where a name gives a salt, the structure may show the parent alone. Some of the results follow. The data scatter; read single values as rough.
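Also: High-content imaging of ALDEFLUOR-stained cells with Hoechst-labelled nuclei in 384-well plates, triplicate wells, scored as Z-score against 0.1% DMSO vehicle, negative meaning fewer ALDHbr cells.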

This test deals with T84. Kind of test: ALDHbr (CSC) cell proportion score relative to DMSO vehicle (ratio to DMSO); breast (SUM159) / gastric (MKN45) / pancreatic (PANC1) / colon cancer lines; ALDHbr cells have high ALDH activity and are rich in cancer stem cells (CSC); higher = more CSC (ALDHbr) cells remaining. The conditions noted are these: 10 µM; 72 h.
As to `C[C@]12CC[C@@H]3c4ccc(O)cc4CC[C@H]3[C@@H]1C[C@@H](O)[C@@H]2O` [Estriol], the ALDHbr stood at 0.875.

In the case of `CC(=O)c1ccc(S(=O)(=O)NC(=O)NC2CCCCC2)cc1` [Acetohexamide], the ALDHbr came to 0.86.

In the case of `CC(=O)c1ccc2c(c1)N(CCCN1CCC(CCO)CC1)c1ccccc1S2` [Piperacetazine], the ALDHbr stood at 0.511. For the compound `CC(=O)CC(c1ccc([N+](=O)[O-])cc1)c1c(O)c2ccccc2oc1=O` (centres undefined) [Acenocoumarol], the ALDHbr is 0.902. Under `CCCC(=O)Nc1ccc(OCC(O)CNC(C)C)c(C(C)=O)c1` (centres undefined) [Acebutolol hydrochloride] stands 1.02. For `CCC1(C)CC(=O)NC1=O` (centres undefined) [Ethosuximide], the ALDHbr came out at 0.997.

As for `O=S(=O)(O)c1cc(O)ccc1O` [Ethamsylate], the ALDHbr was 0.904. Under `NC(=O)OCC(O)COc1ccc(Cl)cc1` (centres undefined) [Chlorphensin carbamate] stands 1.02; under `Nc1nc(N)c2nc(-c3ccccc3)c(N)nc2n1` [Triamterene], 0.656; under `Cc1c(F)c(N2CCNC(C)C2)cc2c1c(=O)c(C(=O)O)cn2C1CC1` (centres undefined) [Grepafloxacin], 0.8.

`CCN1CCCC1CNC(=O)c1cc(S(=O)(=O)CC)c(N)cc1OC` (centres undefined) [Amisulpride]: the ALDHbr is 1.01. As for `O=C(O)c1cc(=O)c2c(OCC(O)COc3cccc4oc(C(=O)O)cc(=O)c34)cccc2o1` [Cromolyn disodium salt], the ALDHbr came to 1.1. Under `COc1ccc(-c2cc(=O)c3c(O)cc(O[C@@H]4O[C@H](CO[C@@H]5O[C@@H](C)[C@H](O)[C@@H](O)[C@H]5O)[C@@H](O)[C@H](O)[C@H]4O)cc3o2)cc1O` [Diosmin] stands 0.905; under `CC(=O)Nc1c(I)c(C(=O)N[C@H]2C(O)O[C@H](CO)[C@@H](O)[C@@H]2O)c(I)c(N(C)C(C)=O)c1I` (some centres undefined) [Metrizamide], 0.96; under `C#CCN(C)Cc1ccccc1` [Pargyline hydrochloride], 0.988. Take `CN(C)CCc1c[nH]c2ccc(Cn3cncn3)cc12` [Rizatriptan benzoate]: the ALDHbr stood at 0.935.

Take `CC(=O)Nc1nnc(S(N)(=O)=O)s1` [Acetazolamide]: the ALDHbr came to 0.871. Then `O=C1CCc2ccc(OCCCCN3CCN(c4cccc(Cl)c4Cl)CC3)cc2N1` [Aripiprazole], with 0.622.

As to `CCCCCOC(=O)Nc1nc(=O)n([C@@H]2O[C@H](C)[C@@H](O)[C@H]2O)cc1F` [Capecitabine], the ALDHbr came out at 0.8. Then `Brc1c(NC2=NCCN2)ccc2nccnc12` [Brimonidine L-Tartrate], with 0.959; and `CN(C)CCC=C1c2ccccc2C=Cc2ccccc21` [Cyclobenzaprine hydrochloride], with 0.631. Then `Nc1ccc(S(=O)(=O)c2ccc(N)cc2)cc1` [Dapsone], with 0.858; and `Cc1cn([C@H]2C=C[C@@H](CO)O2)c(=O)[nH]c1=O` [Stavudine], with 1.07. Then `C[C@]12C[C@H](O)[C@H]3[C@@H](CCC4=CC(=O)CC[C@@]43C)[C@@H]1CC[C@@H]2C(=O)CO` [Corticosterone], with 1.02; and `OC(CCN1CCCCC1)(c1ccccc1)C1CC2C=CC1C2` (centres undefined) [Biperiden hydrochloride], with 0.947. For `CCCCCCCCNC(C)C(O)c1ccc(SC(C)C)cc1` (centres undefined) [Suloctidil], the ALDHbr is 0.186. Then `CN1CCN(C2=Nc3cc(Cl)ccc3Nc3ccccc32)CC1` [Clozapine], with 0.869; and `Cc1cc(-c2ccccc2)nnc1NCCN1CCOCC1` [Minaprine dihydrochloride], with 0.972. In the case of `CN(C)CCC=C1c2ccccc2CCc2ccccc21` [Amitryptiline hydrochloride], the ALDHbr amounted to 0.886. Then `NS(=O)(=O)c1cc(C(=O)O)c(NCc2ccco2)cc1Cl` [Furosemide], with 0.864. For `CN(C)CCOc1ccc(/C(=C(/CCCl)c2ccccc2)c2ccccc2)cc1` [Toremifene], the ALDHbr was 0.586. On to `Cc1nc2n(c(=O)c1CCN1CCC(c3noc4cc(F)ccc34)CC1)CCCC2O` (centres undefined) [Paliperidone], for which the ALDHbr is 0.955.

On to `Nc1nc2c(ncn2COC(CO)CO)c(=O)[nH]1` [Ganciclovir], for which the ALDHbr was 1.02. In the case of `O=C(O)c1cn(C2CC2)c2cc(N3CCNCC3)c(F)cc2c1=O` [Ciprofloxacin hydrochloride monohydrate], the ALDHbr was found to be 0.896. Under `Cc1noc(NS(=O)(=O)c2ccc(N)cc2)c1C` [Sulfisoxazole] stands 1.

In the case of `CC[N+](CC)(CC)CCC(O)(c1ccccc1)C1CCCCC1` (centres undefined) [Tridihexethyl chloride], the ALDHbr was 0.902. As to `CCSc1ccc2c(c1)N(CCCN1CCN(C)CC1)c1ccccc1S2` [Thiethylperazine dimalate], the ALDHbr was found to be 0.153. Under `N[C@@H]1CCCCN(c2c(F)cc3c(=O)c(C(=O)O)cn(C4CC4)c3c2Cl)C1` [Besifloxacin hydrochloride] stands 0.938; under `Nc1ccccc1S(N)(=O)=O` [2-Aminobenzenesulfonamide], 0.975.

(Values after the supplement of paper PMC11880418.)
